The supplement of paper PMC4604168 (melanoma cell lines)
The list shows a part of the results. Repeats are few or missing, and single values can be far off.

test system: COLO800; test: cell count relative to DMSO control; melanoma cells; higher = more viable cells; conditions: library dose: standard library concentration; 72 h
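Also: cells treated in 1,536-well plates, then fixed and DAPI-stained, with nuclei counted from automated high-throughput microscope images.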

| Structure (SMILES) | cell count |
| --- | --- |
| CCCS(=O)(=O)Nc1ccc(F)c(C(=O)c2c[nH]c3ncc(Cl)cc23)c1F + NC(=O)Nc1cc(-c2cccc(F)c2)sc1C(=O)N[C@H]1CCCNC1 [AZD7762] (first compound 0.4 µM, partner dose 0.1 µM) | 68.2% |
| C=C(c1ccc(C(=O)O)cc1)c1cc2c(cc1C)C(C)(C)CCC2(C)C [Bexarotene] + COc1ccc(Cl)c(Nc2nc3ccccc3nc2NS(=O)(=O)c2cccc(NC(=O)C(C)(C)N)c2)c1 [XL147] (first compound 10 µM, partner dose 4 µM) | 119% |
| NC1(c2ccc(-c3nc4ccn5c(=O)[nH]nc5c4cc3-c3ccccc3)cc2)CCC1 + Nc1cccc2c1CN(C1CCC(=O)NC1=O)C2=O [lenalidomide] (first compound 2 µM, partner dose 5 µM) | 50.8% |
| NC1(c2ccc(-c3nc4ccn5c(=O)[nH]nc5c4cc3-c3ccccc3)cc2)CCC1 + O=C(O)c1ccc(-c2c[nH]c3ncc(-c4ccccc4)cc23)cc1C1CCCC1 [GSK650394] (first compound 2 µM, partner dose 0.8 µM) | 62.8% |
| C=C(c1ccc(C(=O)O)cc1)c1cc2c(cc1C)C(C)(C)CCC2(C)C [Bexarotene] + O=C(Nc1cccc(Cl)c1)Nc1ncc(CCNc2ncnc3ccsc23)s1 [SNS314] (first compound 10 µM, partner dose 0.004 µM) | 53.1% |
| CCCS(=O)(=O)Nc1ccc(F)c(C(=O)c2c[nH]c3ncc(Cl)cc23)c1F + NCC(=O)Nc1ccc(-n2nc(C(F)(F)F)cc2-c2ccc3c(ccc4ccccc43)c2)cc1 [OSU03012] (first compound 0.4 µM, partner dose 5 µM) | 41.9% |
| NC1(c2ccc(-c3nc4ccn5c(=O)[nH]nc5c4cc3-c3ccccc3)cc2)CCC1 + C=C(c1ccc(C(=O)O)cc1)c1cc2c(cc1C)C(C)(C)CCC2(C)C [Bexarotene] (first compound 2 µM, partner dose 10 µM) | 53.5% |
| CCCS(=O)(=O)Nc1ccc(F)c(C(=O)c2c[nH]c3ncc(Cl)cc23)c1F + COc1cc(Nc2ncc(F)c(Nc3ccc4c(n3)NC(=O)C(C)(C)O4)n2)cc(OC)c1OC [Tamatinib] (first compound 0.4 µM, partner dose 2 µM) | 56.9% |
